These results are taken from the BET-seq Pho4 binding data (Le et al. 2018).

The other results are listed elsewhere or left out. These are noisy estimates, calculated here from bound and input reads.

The assay deals with T1, Pho4 (S. cerevisiae) (UniProt P07270).
T1 sequence: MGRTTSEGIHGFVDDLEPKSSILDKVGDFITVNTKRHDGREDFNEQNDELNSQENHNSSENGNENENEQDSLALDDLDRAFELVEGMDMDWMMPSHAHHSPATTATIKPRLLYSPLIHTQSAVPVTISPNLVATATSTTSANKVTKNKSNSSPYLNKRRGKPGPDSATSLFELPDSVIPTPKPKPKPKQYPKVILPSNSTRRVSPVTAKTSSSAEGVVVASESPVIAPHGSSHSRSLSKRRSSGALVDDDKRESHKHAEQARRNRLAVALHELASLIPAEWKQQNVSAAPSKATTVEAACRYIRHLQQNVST
Nature of the assay: relative binding free energy (BET-seq); higher = weaker binding. The note with it: reference: library average.
In the case of ATAAGCACGTGAGTTG, the “relative binding free energy” value was found to be 0.07 kcal/mol. As to ACAGTCACGTGATGTT, the “relative binding free energy” value was determined as 0.17 kcal/mol. As for GTTGGCACGTGTTTAT, the “relative binding free energy” value was -0.05 kcal/mol. With AGATGCACGTGTGGTG, the “relative binding free energy” value was -0.07 kcal/mol. The figure for AACGTCACGTGTGGTG is 0.11 kcal/mol; for TATTGCACGTGTGGTT it is 0.09 kcal/mol; for GGGCGCACGTGTTAAG it is 0.1 kcal/mol. Next, GGGAACACGTGAGGGC: 0.26 kcal/mol; GGGTGCACGTGCCGGC: -0.11 kcal/mol; GTGGACACGTGCCGGG: -0.12 kcal/mol. As to TGGTTCACGTGAGTGT, the “relative binding free energy” value is 0.33 kcal/mol.

On to TCTGCCACGTGTAGGT, for which the “relative binding free energy” value was -0.04 kcal/mol. Next, GGATTCACGTGGTAGC: 0.29 kcal/mol. In the case of AGGGTCACGTGGTTAT, the “relative binding free energy” value came to 0.06 kcal/mol. The figure for GTAACCACGTGGGGCG is -0.1 kcal/mol; for GTGGCCACGTGGGCGC it is -0.13 kcal/mol; for TGAAGCACGTGGGCGG it is -0.16 kcal/mol. Next, GGGCTCACGTGTAGTG: 0.21 kcal/mol. The figure for ATGTTCACGTGGTCAG is 0.01 kcal/mol; for CTAGACACGTGGGGAT it is -0.1 kcal/mol; for ATTGCCACGTGTAAGT it is 0.1 kcal/mol.

As to GGCGTCACGTGGTGGG, the “relative binding free energy” value turned out to be 0.09 kcal/mol. Next, TTGCTCACGTGAGGGA: 0.41 kcal/mol; ATAGGCACGTGGGGAC: -0.26 kcal/mol; TGTATCACGTGCTGTG: -0.04 kcal/mol. The figure for TTGGACACGTGTGTCA is 0.11 kcal/mol. The figure for GGTCGCACGTGGTGCA is -0.17 kcal/mol; for CTTGTCACGTGTATGA it is -0.04 kcal/mol. GGTGTCACGTGATGAG: the “relative binding free energy” value amounted to 0.28 kcal/mol. For the sequence ATATACACGTGCGTTT, the “relative binding free energy” value was -0.12 kcal/mol. The figure for ATAGTCACGTGAAATT is 0.3 kcal/mol; for AGAGGCACGTGAAGTA it is 0.12 kcal/mol; for AATAGCACGTGGTTTG it is -0.09 kcal/mol. Consider TCTAGCACGTGCGGTT, for which the “relative binding free energy” value was -0.08 kcal/mol. The figure for GTGTGCACGTGAAAGA is 0.18 kcal/mol. Take GTGCTCACGTGCATGG: the “relative binding free energy” value is 0.08 kcal/mol. In the case of GGTGGCACGTGATTCG, the “relative binding free energy” value worked out at 0.11 kcal/mol. Next, GTGGGCACGTGGTACT: -0.14 kcal/mol; GTGTTCACGTGTAGTA: 0.29 kcal/mol; GCTTTCACGTGTAAGG: 0.45 kcal/mol. Next, GGGTCCACGTGAGGTA: 0.21 kcal/mol. For the sequence ATGTTCACGTGTTAAG, the “relative binding free energy” value worked out at 0.13 kcal/mol. For TGCAGCACGTGTGGGT, the “relative binding free energy” value was -0.1 kcal/mol.

CTGTGCACGTGTGTAG: the “relative binding free energy” value was -0.09 kcal/mol. For the sequence TGATTCACGTGGTTCA, the “relative binding free energy” value is 0.38 kcal/mol. Regarding TGACTCACGTGGTGTG, the “relative binding free energy” value is 0.18 kcal/mol. For GGGGACACGTGGGTCT, the “relative binding free energy” value was -0.15 kcal/mol. Next, AGTTTCACGTGTACGT: 0.27 kcal/mol; ACTTTCACGTGTTGAG: 0.14 kcal/mol; TCGTGCACGTGAGGGA: 0.09 kcal/mol. On to ACTTTCACGTGGGGAA, for which the “relative binding free energy” value came out at 0.21 kcal/mol. The figure for AAGGGCACGTGGGTGC is -0.2 kcal/mol; for GAGGGCACGTGCATTG it is -0.15 kcal/mol; for TTATACACGTGCTAGT it is -0.06 kcal/mol.

On to CCTAGCACGTGGTGGG, for which the “relative binding free energy” value was -0.22 kcal/mol. On to TTCCTCACGTGGTTGG, for which the “relative binding free energy” value is 0.26 kcal/mol. For the sequence ATCGACACGTGTGGAT, the “relative binding free energy” value is 0.13 kcal/mol. On to GAGAGCACGTGTGAGA, for which the “relative binding free energy” value turned out to be 0.1 kcal/mol. Regarding TTATTCACGTGTGACT, the “relative binding free energy” value came to 0.2 kcal/mol. The figure for GGTCACACGTGGATTA is 0.15 kcal/mol; for AAGCGCACGTGGTAGT it is -0.18 kcal/mol. The figure for TTGGACACGTGGCGGA is 0.1 kcal/mol; for GGATTCACGTGTTGCT it is 0.29 kcal/mol. The figure for GGGGGCACGTGCGGGT is -0.06 kcal/mol; for CTGGGCACGTGGGTAA it is -0.16 kcal/mol.

In the case of TTCGTCACGTGAGGTG, the “relative binding free energy” value was determined as 0.23 kcal/mol. As for AGAGGCACGTGTGTTG, the “relative binding free energy” value is -0.02 kcal/mol. Next, GGGCTCACGTGGTGGC: 0.38 kcal/mol; AGGAGCACGTGAATTG: 0.09 kcal/mol; GAGGTCACGTGGTGAA: 0.04 kcal/mol. The figure for CGTTTCACGTGGGGAA is 0.25 kcal/mol; for ACGTGCACGTGTTGGT it is -0.22 kcal/mol. For the sequence TTGGTCACGTGATATT, the “relative binding free energy” value came to 0.18 kcal/mol. For the sequence GCTTTCACGTGCTGTT, the “relative binding free energy” value turned out to be 0.28 kcal/mol.

Take AGATTCACGTGGCGGG: the “relative binding free energy” value amounted to 0.37 kcal/mol. GGAGTCACGTGTGACG: the “relative binding free energy” value stood at 0.17 kcal/mol. The figure for GGAGTCACGTGCTCGT is 0.05 kcal/mol; for ATAAGCACGTGCAGGG it is -0.21 kcal/mol; for AGTTGCACGTGACTTG it is 0.16 kcal/mol.

As to TACTGCACGTGTCGGG, the “relative binding free energy” value came to 0.06 kcal/mol. Consider TTAGACACGTGTAAGT, for which the “relative binding free energy” value was 0.11 kcal/mol. Take GGGTGCACGTGATGCA: the “relative binding free energy” value was determined as 0.12 kcal/mol.

With TCGTGCACGTGGGAAG, the “relative binding free energy” value was -0.12 kcal/mol. With GGGTACACGTGTATTG, the “relative binding free energy” value was determined as 0 kcal/mol.

As to TTTATCACGTGAACTG, the “relative binding free energy” value worked out at 0.34 kcal/mol. Next, TTCATCACGTGAGTAG: 0.24 kcal/mol; TGGTACACGTGGGCAT: -0.2 kcal/mol. The figure for CTGGTCACGTGTTATG is 0.01 kcal/mol; for AAAGTCACGTGTGCTT it is 0.08 kcal/mol. With CGGGTCACGTGAAGTG, the “relative binding free energy” value was determined as 0.34 kcal/mol.

For the sequence TTAGGCACGTGTGCCT, the “relative binding free energy” value was -0.04 kcal/mol. For GCGGGCACGTGATGTT, the “relative binding free energy” value worked out at 0.18 kcal/mol. Next, AAACGCACGTGGTTTG: -0.03 kcal/mol. Turning to TGTTTCACGTGGGAAT, the “relative binding free energy” value amounted to 0.26 kcal/mol. AGGCTCACGTGTCGTG: the “relative binding free energy” value was 0.19 kcal/mol.

Consider ATTGACACGTGTAATT, for which the “relative binding free energy” value is 0.22 kcal/mol.

On to TAGAACACGTGGATGT, for which the “relative binding free energy” value is -0.02 kcal/mol.

Regarding TTGGTCACGTGATGGG, the “relative binding free energy” value worked out at 0.31 kcal/mol. Next, GTCTTCACGTGTGTGG: 0.32 kcal/mol. The figure for TTTTCCACGTGTGGTG is 0.1 kcal/mol; for TGTGCCACGTGGCGGA it is -0.17 kcal/mol; for AGGCACACGTGGGTGA it is -0.22 kcal/mol. In the case of GCAGGCACGTGTGCGT, the “relative binding free energy” value was -0.12 kcal/mol. Next, TTTCACACGTGGGAGG: -0.05 kcal/mol; TGGTACACGTGTGATA: 0.3 kcal/mol.

As to TGTGTCACGTGTGAGA, the “relative binding free energy” value turned out to be 0.22 kcal/mol. As to GTGGTCACGTGCAGTG, the “relative binding free energy” value is 0.23 kcal/mol.

With TGAGGCACGTGGATTA, the “relative binding free energy” value was -0.1 kcal/mol. The figure for AGATGCACGTGGAGTG is -0.02 kcal/mol. On to TGTAACACGTGTGATG, for which the “relative binding free energy” value was -0.05 kcal/mol. Next, GTTAGCACGTGTTGCA: -0.03 kcal/mol; GTTTTCACGTGCGCGG: 0.27 kcal/mol; AGGGTCACGTGTGACA: 0.15 kcal/mol. The figure for TGCTGCACGTGTAGTA is 0.01 kcal/mol. The figure for GGGGACACGTGGGAGC is -0.06 kcal/mol.
